# Measurements: the supplement of paper PMC12217912
# This is one part of the list. Sequences were assembled here from the parent chain. Inactive controls read about 0.05.
# B1: TEV protease; numbered along this chain (parent)
# chain: MGESLFKGPRDYNPISSSICHLTNESDGHTTSLYGIGFGPFIITNKHLFRRNNGTLVVQSLHGVFKVKDTTTLQQHLVDGRDMIIIRMPKDFPPFPQKLKFREPQREERICLVTTNFQTKSMSSMVSDTSCTFPSGDGIFWKHWIQTKDGQCGSPLVSTRDGFIVGIHSASNFTNTNNYFTSVPKNFMELLTNQEAQQWVSGWRLNADSVLWGGHKVFMVKPEEPFQPVKEATQL
# Variants of: B1
# Assay: raw area under fraction-flipped curve 0-4 h after induction (AUC4h, not background-subtracted), DNA-recorder readout of cleavage of the substrate (dimensionless); higher = more cleavage of the substrate by the protease variant
# Details: temperature: 34 °C; time window: 0-4 h after rhamnose induction
# Procedure: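 In vivo DNA recorder in E. coli TOP10(DE3) ΔrhaA at 34 °C. Each TEVp single-site mutant (parent TEVp 0) is paired with a single-site variant of the 7-mer TEVs (canonical ENLYFQ|S). The substrate sits between flexible linkers in a Bxb1-sfGFP-TEVs-SsrA fusion, so cleavage stabilises Bxb1 and speeds flipping of a recombination array, read by NGS. The value is the raw area under the fraction-flipped curve over 0-4 h after rhamnose induction (AUC4h), with ≥20 reads per time point. It is not background-subtracted; inactive controls average about 0.047.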
# 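Also: Bxb1 expression induced with 0.2% (w/v) L-rhamnose at OD600 near 0.5, cultures sampled hourly, flipped fraction per protease–substrate barcode pair counted by paired-end Illumina sequencing.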
Variant,area with substrate ENLCFQS,area with substrate ENLFFQS,area with substrate ENLHFQS,area with substrate ENLIFQS,area with substrate ENLLFQS,area with substrate ENLNFQS,area with substrate ENLQFQS,area with substrate ENLSFQS,area with substrate ENLDFQS,area with substrate ENLEFQS
Q151V,0.0662,0.0795,0.07,0.0708,0.0652,0.0574,0.0555,0.0507,–,–
A170N,0.0325,0.055,0.0291,0.0653,–,0.0489,0.0561,–,0.0711,0.0664
T55R,–,0.0691,–,–,0.0874,–,–,–,0.0634,0.0907
N206W,0.061,0.0739,0.0613,–,–,0.054,0.0671,0.0675,–,0.0771
N206V,0.0814,0.0617,0.0529,–,0.0501,0.059,0.072,–,0.0602,–
F218E,0.0631,0.0749,0.0605,0.0607,0.0519,0.0663,0.0494,0.0769,0.0616,–
G162Y,0.0751,0.0696,0.0571,0.0534,0.071,0.0608,–,0.047,–,0.056
G162E,0.073,0.105,0.0725,–,–,0.0567,0.0754,–,0.0622,0.0574
Q75G,–,0.0597,–,–,–,0.0555,–,0.0641,0.0564,–
P93G,–,0.0805,0.0719,0.0906,–,–,–,0.053,0.0675,0.0584
T159H,0.0912,0.0726,0.0428,0.0974,0.0672,0.0658,–,0.0647,–,–
L156A,0.0575,0.0775,0.0654,–,0.0766,0.0494,0.0777,0.0649,0.0738,–
P9T,–,0.0715,–,–,–,0.0857,–,0.0568,0.0592,–
D27H,–,0.0828,0.0327,0.0566,–,–,0.0815,–,0.0595,0.0458
V67E,–,0.0745,0.0535,–,–,–,–,0.0739,0.0477,–
G35H,–,0.0581,–,–,–,0.0408,–,0.0378,0.0529,–
H62E,–,0.115,0.0669,0.0775,–,0.0737,–,0.0553,0.0613,0.0544
H62T,–,0.0803,0.0455,0.0688,0.0763,0.0628,0.0668,0.0595,0.0616,0.0554
V229W,0.0695,–,0.058,0.131,–,0.0818,0.0772,0.0606,0.0665,–

Variant,area with substrate ENLCFQS,area with substrate ENLFFQS,area with substrate ENLHFQS,area with substrate ENLIFQS,area with substrate ENLLFQS,area with substrate ENLNFQS,area with substrate ENLQFQS,area with substrate ENLSFQS,area with substrate ENLDFQS,area with substrate ENLEFQS
V229N,0.0755,0.11,0.0783,0.0747,–,0.0742,0.0664,0.0516,0.0511,0.0819
I167L,0.071,0.0828,0.0666,–,0.0692,0.0591,0.0392,0.0522,0.0648,–
I167Q,0.0748,0.0544,0.0389,0.0663,–,0.0521,0.0618,0.0648,0.0501,0.0776
E195W,0.0878,0.0748,0.0897,0.072,0.0585,0.0791,0.0682,0.0621,0.0459,–
E195I,0.0559,0.0863,0.0696,–,0.0577,0.0562,–,–,0.058,–
I86H,–,0.0442,0.0462,–,–,0.05,–,0.0406,0.0363,–
E231S,0.0681,0.0742,0.0846,–,0.053,0.0639,–,–,0.073,0.116
T31Y,–,0.0912,0.0518,–,0.0728,0.084,0.0638,0.054,0.0603,0.054
P89T,–,0.0682,0.0611,0.0909,–,0.06,–,0.0526,0.0706,–
P89D,–,–,–,0.0756,–,0.0629,–,–,0.0345,–
K221P,0.0746,0.0732,0.0597,0.0776,0.0814,0.0652,0.0692,0.0573,0.0548,0.063
G54P,–,0.052,–,–,–,0.0654,–,–,0.0363,0.0504
I15R,–,0.0983,–,–,–,–,–,–,0.0352,0.0527
G214H,0.0315,0.0539,–,0.0614,0.045,–,–,–,–,–
G214I,0.063,–,0.0748,–,0.0534,0.0619,–,–,–,0.0542
G214T,0.0656,–,–,–,–,–,–,–,–,–
V157K,0.0529,–,0.0397,–,–,0.0879,–,–,0.0479,–
S169H,0.0428,0.0931,0.0692,0.0632,0.0547,0.0393,0.0688,0.0623,0.0669,–

# Same assay, conditions: temperature: 34 °C; time window: 0-4 h after rhamnose induction
Variant,area with substrate ENLKFQS,area with substrate ENLMFQS,area with substrate ENLPFQS,area with substrate ENLRFQS,area with substrate ENLVFQS,area with substrate ENLTFQS,area with substrate ENLWFQS,area with substrate ENLGFQS
A170N,0.0647,–,–,–,–,–,–,–
T55R,0.0668,0.0766,0.0635,0.0724,0.113,–,–,–
N206W,0.0696,–,–,0.0644,0.0682,0.0594,–,–
N206V,–,–,–,–,–,–,0.0624,–
F218E,0.067,–,0.0591,0.0661,0.0624,–,0.0608,–
G162Y,0.0662,–,0.0475,0.0701,0.0111,–,–,–
G162E,0.0805,–,0.062,0.0635,0.0897,–,–,–
Q75G,0.0661,–,0.0533,0.0707,0.0838,–,–,–
P93G,0.0743,–,–,0.0836,–,–,–,–
L156A,0.0736,0.0581,–,0.0796,–,–,–,–
D27H,0.0181,–,–,0.0661,–,–,–,–
V67E,–,–,–,0.0804,–,–,–,–
G35H,0.046,–,–,–,–,–,0.0539,–
H62E,0.0908,–,–,–,–,–,–,0.0544
H62T,0.0733,0.0763,0.0653,–,–,–,0.0637,–
V229W,0.0977,0.0539,0.0496,0.0755,0.0937,–,–,0.0737
V229N,0.0955,–,0.0521,0.0709,–,–,0.0907,–

Variant,area with substrate ENLKFQS,area with substrate ENLMFQS,area with substrate ENLPFQS,area with substrate ENLRFQS,area with substrate ENLVFQS,area with substrate ENLTFQS,area with substrate ENLWFQS,area with substrate ENLGFQS
I167L,–,–,0.0569,0.0646,–,–,0.0599,0.0851
I167Q,0.0576,–,0.0584,–,–,–,–,–
E195W,0.0834,–,–,–,–,–,0.0629,–
E195I,–,–,0.0736,–,0.0658,–,0.062,0.0688
I86H,–,–,0.0367,–,–,–,–,–
E231S,–,–,0.055,0.0633,–,–,0.0402,–
T31Y,0.0943,–,0.0586,–,–,–,0.0899,–
P89T,–,–,–,0.0731,–,–,–,0.0605
P89D,–,–,–,0.0747,–,–,0.0395,–
K221P,0.112,–,–,0.0845,0.065,–,–,0.0486
G54P,–,–,–,0.0573,–,–,–,–
I15R,0.086,–,–,0.0705,–,–,0.029,–
G214H,–,–,0.0555,–,0.0598,–,–,–
G214I,–,0.08,–,–,0.0771,–,0.068,–
G214T,0.0775,–,0.0455,–,–,–,–,–
V157K,0.0961,–,–,–,–,–,–,–
S169H,–,–,0.055,0.0674,–,–,0.0459,–
